Results as given in PubChem BioAssay AID1745845 (National Center for Advancing Translational Sciences (NCATS), 2022).
The campaign covered roughly 360,000 compounds. About 2,600 (0.72%) were called active. The shares of active, inactive and inconclusive entries below differ from those in the screen. The call rests on the fitted dose curve; in most records, active means well fitted inhibition curve with a large enough effect; inconclusive means small, poorly fitted or top-dose-only effect; inactive means no such curve, though single readings can be large or run the other way. A potency beside an inconclusive call is a rough fit, not a confirmed value.

Experiment: Primary qHTS for Inhibitors of ATXN expression; further: nearly all actives have a fitted effect of over 55% in size
Settings: HEK-293 ATXN2-luciferase reporter, luminescence, 24 h; activity change, negative = inhibition: at 57 µM (top of the series)
Summary of the method: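 qHTS (up to 57 uM final) was run with 24 h compound exposure of reporter cells at 37 °C. Each well was multiplexed: SteadyGlo luminescence measured ATXN2-luciferase expression after a fluorogenic Gly-Phe-AFC viability readout (25 uM final).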
On the % scale 0 is the no-effect control and ±100 the full control effect; potency means the concentration at half of the fitted maximal effect; tags describe the fitted curve by direction and shape.

Compound	activity change, negative = inhibition	Potency
O=S(=O)(NCc1c(Cl)cccc1Oc1ccccc1)c1ccccc1	inactive: -32.2%	
COCC(C)n1c(C)cc(C(=O)COC(=O)c2cccn2C)c1C (stereo not given)		active: 17.8 µM
CCc1ccc(OCCNC(=O)c2ccccc2SCc2ccc(F)cc2)cc1	inactive: -15%	
NC(Cc1ccc(Cl)cc1)c1csc(Nc2ccc(S(N)(=O)=O)cc2)n1 (stereo not given)		inconclusive: 20 µM [inhibitor, partial curve, poor fit]
O=C(c1ccc(S(=O)(=O)Cc2ccccc2Cl)c([N+](=O)[O-])c1)N1CCN(c2ccccn2)CC1		inconclusive: 26.7 µM [inhibitor, single point]
FC(F)(F)c1cc(CCN2C(=S)NC[C@@H]2CC2CCCCC2)cc(C(F)(F)F)c1		inconclusive: 31.6 µM [inhibitor, single point]
C=CC(=O)N(CCC)C(c1ccccc1)c1ccccc1OC (stereo not given)		inconclusive: 31.6 µM [inhibitor, partial curve, poor fit]
CCOC(=O)C1=CN(Cc2cccc(F)c2)S(=O)(=O)N(C)C1c1cccc(OC)c1 (stereo not given)	inactive: -0.621%	
N#Cc1c(N)n(CCCN2CCOCC2)c2nc3ccccc3nc12	inactive: -19.9%	
CN(C)S(=O)(=O)c1cc(NC(=O)c2ccc(-n3ccnc3)c([N+](=O)[O-])c2)ccc1Cl	inactive: -29.5%	
COc1ccc(C(=O)/C=C/Nc2cc(C)on2)cc1	inactive: 85%	
COc1ccc(-c2c[n+](CC(=O)OC3CC(C)CCC3C(C)C)c3n2CCC3)cc1 (stereo not given)		inconclusive: 23.8 µM [inhibitor, single point]
Nc1nc(-c2ccc3c(c2)NC(=O)CO3)cs1	inactive: 0.682%	
CCOC(=O)C(C)Sc1ncc(OC)c(=O)[nH]1 (stereo not given)		inconclusive: 31.6 µM [inhibitor, partial curve, poor fit]
Cc1nc(Cl)cc(CS(=O)(=O)c2ccc(Cl)cc2)n1		inconclusive: 1.5 µM [inhibitor, partial curve, poor fit]
CCNS(=O)(=O)c1ccc(CCC(=O)N2CCc3ccccc3C2)cc1	inactive: 0.495%	
Cc1nc2c(OCCOc3ccccc3)cccn2c1N(C)C(=O)CCC1CCCC1		inconclusive: 25.1 µM [inhibitor, single point]
Cc1ccc(N(C)S(=O)(=O)c2cc(-c3cnc(C4CC4)o3)ccc2C)cc1		inconclusive: 10 µM [inhibitor, partial curve]
Oc1cc(Nc2cccnc2)cc2cccnc12		inconclusive: 35.5 µM [inhibitor, single point]
CN(C)c1nc(C=C(C#N)C#N)c(Cl)n1-c1ccc(F)cc1		inconclusive: 20 µM [inhibitor, partial curve, poor fit]
COc1ccc(-c2nn(-c3ccccc3)cc2/C=C/C(=O)N(C)CC(=O)Nc2cccc(F)c2)cc1OC	inactive: -22.8%	
CCOc1ccc(OCc2cccc(C(=O)N/N=C/c3cccnc3)c2)cc1		active: 2.12 µM

Compound	activity change, negative = inhibition	Potency
NC(=S)N=Nc1c(O)n(CCCl)c2ccc(Br)cc12		inconclusive: 39.8 µM [inhibitor, single point]
CCCC(=O)NC(c1ccc(C)cc1)c1ccc2cccnc2c1O (stereo not given)		inconclusive: 14.1 µM [inhibitor, single point]
COc1ccc(-c2nc(C(N)=O)c3[nH]c(=O)n(-c4cccc(Cl)c4)c3n2)cc1OC		inconclusive: 39.8 µM [inhibitor, single point]
Cc1c(C)c(C)c2[nH]c(-c3ccc4c(c3)OCO4)nc2c1C		inconclusive: 39.8 µM [inhibitor, single point]
Cn1c(=O)c2sc3c(c2n(CC(=O)Nc2ccccc2)c1=O)COC(C)(C)C3	inactive: 10.1%	
C=CCC[C@H](Cc1ccc(F)cc1)C(=O)OC[C@@H](Cc1c[nH]c2ccccc12)NC(=O)[C@@H](CC=C)CC(=O)N(CCO)Cc1ccccc1		inconclusive: 31.6 µM [inhibitor, single point]
CC(C)Cn1c(N)c(C(=O)CSc2ccc3c(c2)OCCO3)c(=O)n(C)c1=O		inconclusive: 28.2 µM [inhibitor, partial curve, poor fit]
CCOC(=O)c1c(NC(=O)COc2ccccc2F)sc2c1CC(C)(C)NC2(C)C		inconclusive: 35.5 µM [inhibitor, single point]
CCOc1ccc(N2CC(c3nc4ccccc4n3CCCOc3ccccc3OC)CC2=O)cc1 (stereo not given)		inconclusive: 28.2 µM [inhibitor, single point]
O=C(COc1ccccc1)Nc1ccc(-c2ccc(N3CCOCC3)nn2)cc1	inactive: 9.18%	
O=C(C1CCN(C2CC(=O)N(c3ccc(F)cc3)C2=O)CC1)N1CCOCC1 (stereo not given)	inactive: -7.63%	
COc1ccc(N2C(=O)CC(NNC(=O)c3ccco3)C2=O)cc1 (stereo not given)		inconclusive: 29.9 µM [inhibitor, partial curve, poor fit]
C[C@H](O)[C@@H]1CN2CCc3c([nH]c4ccccc34)[C@@H]2C[C@@H]1N(C)C(=S)Nc1ccc(C#N)cc1	inactive: -20%	
O=C(NCCC1=CCCCC1)C(=O)NCC1OCCCN1S(=O)(=O)c1ccccc1 (stereo not given)	inactive: 10.3%	
CC(C)CC1CC(C)(c2csc(NNC(=O)c3ccccc3)n2)OC1=O (stereo not given)	inactive: -21.7%	
O=C1C(Sc2ccccc2)=C[C@@]2(O)CC[C@@H](O)[C@]1(Sc1ccccc1)[C@H]2O		inconclusive: 28.2 µM [inhibitor, single point]
Cc1ccc(C)n1NC(=O)c1ccccc1Cl	inactive: -13.2%	
CCCCOc1ccc(C(=O)N2CC(=O)Nc3ccc(Br)cc3C2c2ccc(F)cc2)cc1 (stereo not given)		inconclusive: 28.2 µM [inhibitor, single point]
COc1ccc(Br)cc1Cn1nnc(C(=O)Nc2ccc(C)cc2C)c1N		inconclusive: 28.2 µM [inhibitor, partial curve, poor fit]
Nc1nc(NCCCN2CCOCC2)nc(Nc2ccccc2F)c1[N+](=O)[O-]		inconclusive: 12.6 µM [inhibitor, partial curve]
Cc1ccccc1CN1CCN(S(C)(=O)=O)CC1	inactive: 0.549%	
Cc1nc(Nc2ccc(Cl)c(Cl)c2)sc1C(=O)Nc1ccccc1		inconclusive: 39.8 µM [inhibitor, single point]

Compound	activity change, negative = inhibition	Potency
Cc1nc2ccccc2n1CCc1nc2c3ccccc3nc(SCC(=O)Nc3cccc(C(F)(F)F)c3)n2n1		inconclusive: 22.4 µM [inhibitor, partial curve, poor fit]
Cc1ccc(C(=O)N[C@@H](C)CN2C3=NC[C@H](C(C)C)N3C[C@H]2Cc2ccc(O)cc2)cc1Br		inconclusive: 28.2 µM [inhibitor, partial curve]
O=C(Nc1cccc2c1CCCC2)c1cc([N+](=O)[O-])ccc1Cl		active: 25.1 µM
Cc1cc(S(=O)(=O)N2CCN(c3ccc(F)cc3)CC2)c(C)s1		inconclusive: 22.4 µM [inhibitor, partial curve, poor fit]
CCOC(=O)C1(CCc2ccccc2)CCN(C2Cc3ccccc3C2)CC1		inconclusive: 37.7 µM [inhibitor, single point]
CN(C)CCNc1ncnc2c1cnn2-c1ccc(Cl)cc1		inconclusive: 28.2 µM [inhibitor, single point]
CCCCOc1ccc(C(=O)Nc2ccc(S(=O)(=O)Nc3nc(C)cc(C)n3)cc2)cc1		inconclusive: 39.8 µM [inhibitor, single point]
O=C(Cn1nc(-c2ccccc2)c2cnc3ccccc3c21)Nc1ccccc1	inactive: 6.2%	
CC(Nc1nc(-c2ccc(Cl)cc2)cs1)c1nc2cc(Cl)c(N3CCCCC3)cc2n1CCOCCO (stereo not given)		inconclusive: 31.6 µM [inhibitor, single point]
O=C(Nc1nccs1)c1cccc(N2C(=O)c3cccc4c([N+](=O)[O-])ccc(c34)C2=O)c1		inconclusive: 18.9 µM [inhibitor, partial curve, poor fit]
COc1ccc(-n2nnnc2SCC(=O)Nc2cc(OC)c([N+](=O)[O-])cc2C)cc1		inconclusive: 10.6 µM [inhibitor, partial curve, poor fit]
CCOC(=O)C1CCN(C(=O)CCc2c(C)nc3cc(-c4ccccc4)nn3c2C)CC1		inconclusive: 11.2 µM [inhibitor, partial curve, poor fit]
CC1(C)CC2CC(C)(CN2/C=N/c2sc3c(c2C#N)CC(C)(C)NC3(C)C)C1 (stereo not given)		inconclusive: 4.74 µM [inhibitor, full curve, poor fit]
CC(=O)c1cccc2c(O)c(C3=Nc4ccccc4C3=O)[nH]c12		inconclusive: 25.1 µM [inhibitor, single point]
c1ccc(-c2csc3ncnc(NCc4ccccn4)c23)cc1		inconclusive: 28.2 µM [inhibitor, single point]
C[C@]12c3[nH]c4cc(-c5ccco5)ccc4c3CCN1C(=O)[C@@H](CC(=O)NCc1cccc(C(F)(F)F)c1)C[C@@H]2C(=O)N1CCCCC1		inconclusive: 39.8 µM [inhibitor, single point]
Cc1ccc(S(=O)(=O)N=Nc2c(O)[nH]c3ccccc23)cc1	inactive: 1.36%	
Cc1ccc(NC(=O)CCCN2C(=O)c3cccc4cccc(c34)C2=O)cc1		inconclusive: 11.9 µM [inhibitor, partial curve, poor fit]
COc1cccc(C(=O)NCC2CCCN2S(=O)(=O)c2ccccc2)c1 (stereo not given)		inconclusive: 39.8 µM [inhibitor, partial curve, poor fit]
NNC(=O)c1cc2ccccc2[nH]1	inactive: -7.07%	
CC(C)Oc1ccc(C(=O)Nc2cccc(S(=O)(=O)N3CCCC3)c2)cc1		inconclusive: 39.8 µM [inhibitor, single point]
